Our source for the switch fluorescence ratio values is the supplement of paper PMC10126150.

Sequences with one replicate were seen in a single cluster, so their values are uncertain.

For this data set, the system named is ATP. The data set is described as follows: switch fluorescence ratio, 500 uM ATP over buffer (Cy3 cluster intensity, sum of 5 cycles each) (fold (ratio)); higher = stronger signal-on switching upon ATP binding; sequences stand for … in TCGTCGGCAGCGTCAGATGTGTATAAGAGACAGTTTTTTTTTTTTTTTTTTTTTTTTT…TC. The conditions noted are these: aptamer strand: ATP DNA aptamer (quencher-CACCTGGGGGAGTATTGCGGAGGAAGG + anchor), 100 nM annealed; ATP concentration: 500 uM; one replicate. An outline of the steps: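 Per cluster, summed Cy3 intensity from the target cycles was divided by that from the buffer cycles to give the fluorescence ratio, then averaged per switch-domain sequence. Clusters outside 100-1000 RFU were excluded. The Cy3-labelled switching-strand clusters, on a modified Illumina MiSeq flow-cell, were annealed to 100 nM quencher-labelled ATP aptamer and imaged in selection buffer, then after 15 min with 500 uM ATP at 22 °C, for five cycles with NaOH stripping and re-annealing between them.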
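Also: ATP exposure 15 min at 22 °C before imaging.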

On to TGCAGGACGC, for which the switch fluorescence ratio was 1.08.

As to TAGTTTGAGT, the switch fluorescence ratio turned out to be 1.03.

Consider ACGATCTAAT, for which the switch fluorescence ratio amounted to 1.04.

With TGCAGGATG, the switch fluorescence ratio is 1.01.

Take TGACTACGAG: the switch fluorescence ratio is 1.

Regarding TGCGTCAGCT, the switch fluorescence ratio is 0.93.

In the case of CTCTACGAAT, the switch fluorescence ratio worked out at 1.06.

As to TAGAGATTGA, the switch fluorescence ratio came out at 1.02.

As for TTCAATTAGG, the switch fluorescence ratio was 0.994.

CGCCTGTTAC: the switch fluorescence ratio came to 1.94.

Turning to ACGCGTTGTC, the switch fluorescence ratio was found to be 1.06.

As for AAATTGAACA, the switch fluorescence ratio turned out to be 1.26.

For TTCGCTGTTT, the switch fluorescence ratio was 1.04.

Turning to CATGTTTGAG, the switch fluorescence ratio came to 0.981.

In the case of TCAGGATATT, the switch fluorescence ratio is 1.02.

On to GATTCTGGAG, for which the switch fluorescence ratio came to 1.08.

As for ACGTCTAGAA, the switch fluorescence ratio stood at 1.02.

Regarding GACAGAGTTG, the switch fluorescence ratio worked out at 1.03.

With GTGGGTGGAA, the switch fluorescence ratio amounted to 1.

With GAGTTAGTCC, the switch fluorescence ratio turned out to be 1.01.

For the sequence AGATGCACTC, the switch fluorescence ratio worked out at 1.05.

Regarding TATAGTGGAC, the switch fluorescence ratio amounted to 1.02.

For AGTTTGTCCT, the switch fluorescence ratio is 1.03.

Take AGTCAAGCGT: the switch fluorescence ratio is 0.992.

For the sequence GTAAATTGCG, the switch fluorescence ratio was 1.

For TTACCCAGGC, the switch fluorescence ratio came to 1.29.

In the case of TATCAGGCAC, the switch fluorescence ratio is 0.996.

As for CTATTTCCAG, the switch fluorescence ratio was determined as 1.03.

As to AAGAATTTAA, the switch fluorescence ratio is 0.996.

Consider TCTCTCAACG, for which the switch fluorescence ratio was found to be 1.06.

Take TAGCGAGTC: the switch fluorescence ratio amounted to 1.15.

For the sequence TGCAGCTTGA, the switch fluorescence ratio was 1.13.

As to GAACGGAGCG, the switch fluorescence ratio is 1.02.

With GTTGGACAAA, the switch fluorescence ratio was determined as 0.985.

Regarding CACGAGGTA, the switch fluorescence ratio is 0.976.

Turning to TTTTGTGCCT, the switch fluorescence ratio came to 0.932.

With ACTCTAGAGG, the switch fluorescence ratio was determined as 1.

On to CGTGTTATGT, for which the switch fluorescence ratio worked out at 0.996.

For the sequence CCTGTCGGTC, the switch fluorescence ratio came to 1.06.

For the sequence CGTGCAATTG, the switch fluorescence ratio is 1.21.

Regarding AAACGAATG, the switch fluorescence ratio amounted to 1.01.

Consider GGAAACGACT, for which the switch fluorescence ratio amounted to 0.972.

Regarding ACTACAAAGG, the switch fluorescence ratio came out at 1.08.

Regarding ACAGTTGCCG, the switch fluorescence ratio came to 0.979.

In the case of ATAGCAGGGC, the switch fluorescence ratio turned out to be 1.04.

For GGAAGAATCT, the switch fluorescence ratio turned out to be 0.952.

GCATTTGCCC: the switch fluorescence ratio turned out to be 1.

Consider ACTTTTCTT, for which the switch fluorescence ratio is 1.01.

Take AGAGATTTT: the switch fluorescence ratio worked out at 0.99.

In the case of AAGTCTAGTC, the switch fluorescence ratio was found to be 1.03.

On to TACGGACCGT, for which the switch fluorescence ratio was 1.04.

Consider AGGCACTGCT, for which the switch fluorescence ratio amounted to 1.02.

Turning to CGTCGCGCAC, the switch fluorescence ratio turned out to be 2.49.

GGAGAGAGGA: the switch fluorescence ratio came to 1.06.

Consider CACTGGATG, for which the switch fluorescence ratio turned out to be 0.988.

As to AGGAAGCTGG, the switch fluorescence ratio was found to be 0.975.

In the case of GCGGGAATTT, the switch fluorescence ratio is 0.974.

Regarding TCAAATGGC, the switch fluorescence ratio worked out at 0.975.

As for ACCTTGTTAT, the switch fluorescence ratio came out at 0.963.

Turning to ATGAGTAAAT, the switch fluorescence ratio amounted to 1.

TCGCTCTTTT: the switch fluorescence ratio was 1.03.

For GCTGCCAGGT, the switch fluorescence ratio was found to be 1.18.

Turning to CGGAATGCGT, the switch fluorescence ratio came out at 1.04.

Consider AGGTCCGTGA, for which the switch fluorescence ratio came out at 1.03.

For the sequence GAGTACCCCG, the switch fluorescence ratio stood at 1.

For TTGGTCCTTA, the switch fluorescence ratio is 1.03.

With CAGGTTCTGG, the switch fluorescence ratio is 0.969.

Turning to CACAGAATCT, the switch fluorescence ratio is 1.07.

For AGGATTAGCA, the switch fluorescence ratio worked out at 0.989.

With CCCCGAGGCG, the switch fluorescence ratio turned out to be 2.39.

In the case of AGGTCGATCA, the switch fluorescence ratio was 0.971.

In the case of CGACAGCCAG, the switch fluorescence ratio amounted to 1.07.

Take AGAATGGTGG: the switch fluorescence ratio was determined as 1.11.

As for AATACAGTG, the switch fluorescence ratio is 1.01.

Consider TACCCACTCT, for which the switch fluorescence ratio came to 1.35.

In the case of TATTCATTCA, the switch fluorescence ratio came to 0.966.

On to AGGCCTTGAA, for which the switch fluorescence ratio stood at 0.996.

Consider TGATGAAAGC, for which the switch fluorescence ratio was found to be 1.07.

With TTTCTAATCA, the switch fluorescence ratio is 1.03.
